# The list shows a part of the results.
# How the values were obtained:
# Experiment in all cases: glycan array binding signal (z-score within array); higher = stronger binding
# Settings in all cases: glycan notation: IUPAC condensed, linker removed
# [1] = molecular target: Fuc(a1-2)Gal(b1-4)GlcNAc(b1-3)Gal(b1-4)GlcNAc(b1-3)Gal(b1-4)GlcNAc
# Outline: (§1)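 The binding signal is a Z-score computed within each array and averaged over linkers. Arrays of the same protein sequence at different concentrations or buffers were also averaged together. Data originate from 3228 arrays in the Consortium for Functional Glycomics database, kept only where the protein sequence was available.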
# [2] = molecular target: Fuc(a1-2)Gal(b1-4)GlcNAc(b1-3)GalNAc
# Outline: as §1
# [3] = molecular target: Fuc(a1-2)Gal(b1-4)GlcNAc(b1-3)[Fuc(a1-2)Gal(b1-4)GlcNAc(b1-6)]GalNAc
# Outline: as §1
# [4] = molecular target: Fuc(a1-2)Gal(b1-4)GlcNAc(b1-3)[Fuc(a1-3)[Gal(b1-4)]GlcNAc(b1-6)]Gal(b1-4)Glc
# Outline: as §1
# [5] = molecular target: Fuc(a1-2)Gal(b1-4)GlcNAc(b1-6)GalNAc
# Outline: as §1
# [6] = molecular target: Fuc(a1-2)Gal(b1-4)GlcNAc6S
# Outline: as §1
# [7] = molecular target: Fuc(a1-2)Gal(b1-4)[Fuc(a1-3)]GlcNAc
# Outline: as §1
# [8] = molecular target: Fuc(a1-2)Gal(b1-4)[Fuc(a1-3)]GlcNAc(b1-2)Man(a1-3)[Fuc(a1-2)Gal(b1-4)[Fuc(a1-3)]GlcNAc(b1-2)Man(a1-6)]Man(b1-4)GlcNAc(b1-4)[Fuc(a1-6)]GlcNAc
# Outline: as §1
# [9] = molecular target: Fuc(a1-2)Gal(b1-4)[Fuc(a1-3)]GlcNAc(b1-2)[Fuc(a1-2)Gal(b1-4)[Fuc(a1-3)]GlcNAc(b1-4)]Man(a1-3)[Fuc(a1-2)Gal(b1-4)[Fuc(a1-3)]GlcNAc(b1-2)Man(a1-6)]Man(b1-4)GlcNAc(b1-4)GlcNAc
# Outline: as §1
# [10] = molecular target: Fuc(a1-2)Gal(b1-4)[Fuc(a1-3)]GlcNAc(b1-3)Gal(b1-4)[Fuc(a1-3)]GlcNAc
# Outline: as §1
# [11] = molecular target: Fuc(a1-2)Gal(b1-4)[Fuc(a1-3)]GlcNAc(b1-3)Gal(b1-4)[Fuc(a1-3)]GlcNAc(b1-3)Gal(b1-4)[Fuc(a1-3)]GlcNAc
# Outline: as §1
# [12] = molecular target: Fuc(a1-2)Gal(b1-4)[Fuc(a1-3)]GlcNAc(b1-3)GalNAc
# Outline: as §1
# [13] = molecular target: Fuc(a1-2)Gal(b1-4)[Fuc(a1-3)]GlcNAc(b1-3)[Neu5Ac(a2-6)Gal(b1-4)GlcNAc(b1-6)]Gal(b1-4)Glc
# Outline: as §1
# [14] = molecular target: Fuc(a1-2)Gal3S(b1-4)GlcNAc
# Outline: as §1
# [15] = molecular target: Fuc(a1-2)Gal6S(b1-3)GlcNAc
# Outline: as §1
# [16] = molecular target: Fuc(a1-2)Gal6S(b1-3)GlcNAc6S
# Outline: as §1
# Fuc(a1-2)Gal6S(b1-4)Glc = molecular target: Fuc(a1-2)Gal6S(b1-4)Glc
# Outline: as §1
# [17] = molecular target: Fuc(a1-2)Gal6S(b1-4)Glc6S
# Outline: as §1
# Fuc(a1-2)[Gal(a1-3)]Gal = molecular target: Fuc(a1-2)[Gal(a1-3)]Gal
# Outline: as §1
# [18] = molecular target: Fuc(a1-2)[Gal(a1-3)]Gal(b1-3)GalNAc
# Outline: as §1
# [19] = molecular target: Fuc(a1-2)[Gal(a1-3)]Gal(b1-3)GalNAc(b1-3)Gal(a1-4)Gal(b1-4)Glc
# Outline: as §1
# [20] = molecular target: Fuc(a1-2)[Gal(a1-3)]Gal(b1-3)GlcNAc
# Outline: as §1
# [21] = molecular target: Fuc(a1-2)[Gal(a1-3)]Gal(b1-3)GlcNAc(b1-2)Man(a1-3)[Fuc(a1-2)[Gal(a1-3)]Gal(b1-3)GlcNAc(b1-2)Man(a1-6)]Man(b1-4)GlcNAc(b1-4)GlcNAc
# Outline: as §1
# [22] = molecular target: Fuc(a1-2)[Gal(a1-3)]Gal(b1-3)GlcNAc(b1-2)Man(a1-3)[Fuc(a1-2)[Gal(a1-3)]Gal(b1-3)GlcNAc(b1-2)Man(a1-6)]Man(b1-4)GlcNAc(b1-4)[Fuc(a1-6)]GlcNAc
# Outline: as §1
# [23] = molecular target: Fuc(a1-2)[Gal(a1-3)]Gal(b1-3)GlcNAc(b1-3)GalNAc
# Outline: as §1
# [24] = molecular target: Fuc(a1-2)[Gal(a1-3)]Gal(b1-3)GlcNAc(b1-6)GalNAc
# Outline: as §1
# [25] = molecular target: Fuc(a1-2)[Gal(a1-3)]Gal(b1-4)Glc
# Outline: as §1
# [26] = molecular target: Fuc(a1-2)[Gal(a1-3)]Gal(b1-4)GlcNAc
# Outline: as §1
# [27] = molecular target: Fuc(a1-2)[Gal(a1-3)]Gal(b1-4)GlcNAc(b1-2)Man
# Outline: as §1
# [28] = molecular target: Fuc(a1-2)[Gal(a1-3)]Gal(b1-4)GlcNAc(b1-2)Man(a1-3)[Fuc(a1-2)[Gal(a1-3)]Gal(b1-4)GlcNAc(b1-2)Man(a1-6)]Man(b1-4)GlcNAc(b1-4)GlcNAc
# Outline: as §1
binder,measurement,setting,value
Pwp4 (Candida glabrata) (protein) MGSSHHHHHHSSGLVPRGSHMASVGNPITVSNVCSFPKNWHRTAGFRALTARLGIGIQSDSYKELLNYPGTFQLTTQQSSTTKPNFQISGLVGNIYGLTIVPSYLLVELTGYFVPPVSGEYTFSLEGSDDAAIIFIANPSTFKCGHVEDWPTAYDNDVTVTESIHATRTIYMIEGVAYPIRIAYYNGLSLGKLQASFTDPEGVKRVDWNGYIWRYDSCDTCSYV,glycan array binding signal (z-score),[1],-0.257
same,glycan array binding signal (z-score),[2],-0.404
same,glycan array binding signal (z-score),[3],-0.48
same,glycan array binding signal (z-score),[4],0.55
same,glycan array binding signal (z-score),[5],-0.365
same,glycan array binding signal (z-score),[6],-0.4
same,glycan array binding signal (z-score),[7],-0.67
same,glycan array binding signal (z-score),[8],0.141
same,glycan array binding signal (z-score),[9],-0.097
same,glycan array binding signal (z-score),[10],0.356
same,glycan array binding signal (z-score),[11],1.61
same,glycan array binding signal (z-score),[12],0.139
same,glycan array binding signal (z-score),[13],-0.578
same,glycan array binding signal (z-score),[14],0.895
same,glycan array binding signal (z-score),[15],-0.52
same,glycan array binding signal (z-score),[16],0.072
same,glycan array binding signal (z-score),Fuc(a1-2)Gal6S(b1-4)Glc,-0.528
same,glycan array binding signal (z-score),[17],0.675
same,glycan array binding signal (z-score),Fuc(a1-2)[Gal(a1-3)]Gal,-0.547
same,glycan array binding signal (z-score),[18],0.234
same,glycan array binding signal (z-score),[19],-0.516
same,glycan array binding signal (z-score),[20],-0.366
same,glycan array binding signal (z-score),[21],-0.259
same,glycan array binding signal (z-score),[22],-0.365
same,glycan array binding signal (z-score),[23],-0.307
same,glycan array binding signal (z-score),[24],1.1
same,glycan array binding signal (z-score),[25],-0.323
same,glycan array binding signal (z-score),[26],-0.522
same,glycan array binding signal (z-score),[27],-0.068
same,glycan array binding signal (z-score),[28],-0.161
